28 molecules from the supplement of paper PMC10037445 can be followed below.

The full ranking holds about 2,900 compounds; the median of “IRF Lucia reporter activity, fold change vs agonist alone” is about 0.9, and the highest 2% start at about 2.8. The list shows a part of the results.

Experiment [1] concerns RAW-Dual. As to the kind of experiment: IRF Lucia reporter activity, fold change vs agonist alone; cytotoxicity flag (confluency mask): not cytotoxic; higher = enhanced IRF activity. In outline: (§1)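 RAW-Dual macrophages were seeded in DMEM at 50,000 cells/well in 384-well plates, given 50 nL of library stock by pin tool, and given a PRR agonist 1 h later. Plates were held at 37 °C, 5% CO2 for 20 hours, after which supernatant was read for IRF by QuantiLuc luminescence and for NF-κB by QuantiBlue absorbance at 620 nm. Reporter activity is expressed as fold change over wells that received agonist alone. A well was called cytotoxic when IncuCyte confluency fell below 70% of agonist controls in both mask sets.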

For experiment [2], the system named is RAW-Dual. In words: IRF Lucia reporter activity, fold change vs agonist alone; higher = enhanced IRF activity. Conditions: library stock concentration (final ~1000-fold dilution): 10 mM, agonist: MPLA (TLR4) […]. In short, it runs like this:
as §1

Experiment [3] relates to RAW-Dual. In words: IRF Lucia reporter activity, fold change vs agonist alone; cytotoxicity flag (confluency mask): cytotoxic (confluency <70% of control); higher = enhanced IRF activity. In short, it runs like this: as §1
The mark [4] stands for this setting: agonist: 3'3'-cGAMP (STING) 10 ug/mL.
Where [5] appears, read: cytotoxicity flag (confluency mask): not cytotoxic.

For the molecule `CCCCCCCCCC(=O)OC1(c2ccc(Cl)cc2)CCN(CCCC(=O)c2ccc(F)cc2)CC1` (library stock concentration (final ~1000-fold dilution): 10 mM), the “IRF Lucia reporter activity” value in the experiment on RAW-Dual [1] (setting [4]) was found to be 0.979; in the experiment on RAW-Dual [1] (agonist: LPS (TLR4) 0.1 ug/mL), 1.14.
With `CCc1ccc(-c2nc(CSCC(=O)NCCc3ccccc3)c(C)o2)cc1` (library stock concentration (final ~1000-fold dilution): 10 mM), the entries for the “IRF Lucia reporter activity” value with RAW-Dual [1] (setting [4]) and in the experiment with RAW-Dual [1] (agonist: LPS (TLR4) 0.1 ug/mL) were 1.11 and 0.947, respectively.
Turning to `CC(O)Cn1cnc2c1c(=O)n(C)c(=O)n2C` (stereo not given), the “IRF Lucia reporter activity” value with RAW-Dual [2] (setting [5]) is 1.05.
In the case of `CC(O)Cn1cnc2c1c(=O)n(C)c(=O)n2C` (stereo not given) (library stock concentration (final ~1000-fold dilution): 10 mM), the entries for the “IRF Lucia reporter activity” value in the experiment with RAW-Dual [1] (setting [4]) and with RAW-Dual [1] (agonist: LPS (TLR4) 0.1 ug/mL) were 0.968 and 1.32, respectively.
On to `COCCNCCc1cccc(Nc2ncc3c(n2)-c2ccccc2C(c2ccccc2F)C3)c1` (stereo not given) (library stock concentration (final ~1000-fold dilution): 10 mM), for which the “IRF Lucia reporter activity” value came out at 0.0166 in the experiment with RAW-Dual [3] (setting [4]) and 0.159 in the experiment with RAW-Dual [3] (agonist: LPS (TLR4) 0.1 ug/mL).
Take `Cc1ccc2nc(CN(CCN(Cc3nc4ccc(C)cc4[nH]3)Cc3nc4ccc(C)cc4[nH]3)Cc3nc4ccc(C)cc4[nH]3)[nH]c2c1` (library stock concentration (final ~1000-fold dilution): 10 mM): the “IRF Lucia reporter activity” value with RAW-Dual [3] (setting [4]) was found to be 0.0117; in the experiment on RAW-Dual [3] (agonist: LPS (TLR4) 0.1 ug/mL), 0.0238.
Take `CN(C(Cc1ccc(OS(=O)(=O)c2cccc3cnccc23)cc1)C(=O)N1CCN(c2ccccc2)CC1)S(=O)(=O)c1cccc2cnccc12` (stereo not given): in the experiment on RAW-Dual [2] (setting [5]), the “IRF Lucia reporter activity” value was found to be 0.686.
Regarding `CN(C(Cc1ccc(OS(=O)(=O)c2cccc3cnccc23)cc1)C(=O)N1CCN(c2ccccc2)CC1)S(=O)(=O)c1cccc2cnccc12` (stereo not given) (library stock concentration (final ~1000-fold dilution): 10 mM), the “IRF Lucia reporter activity” value in the experiment on RAW-Dual [1] (setting [4]) amounted to 0.451; in the experiment on RAW-Dual [1] (agonist: LPS (TLR4) 0.1 ug/mL) it was 0.792.
The corresponding values for `CCCCCCOC(=O)c1cc(=O)c(O)c2c(O)c(O)c(OC)cc2c1` (library stock concentration (final ~1000-fold dilution): 1 mM) are 0.0413 and 0.872.
Regarding `CN1CCC(Nc2nc(Nc3ccc(Oc4ccccc4)cc3)c3c(=O)[nH]cc(Br)c3n2)CC1` (library stock concentration (final ~1000-fold dilution): 10 mM), the “IRF Lucia reporter activity” value is 0.975 with RAW-Dual [1] (setting [4]) and 1.02 in the experiment with RAW-Dual [1] (agonist: LPS (TLR4) 0.1 ug/mL).
With `CN1CCC(Nc2nc(Nc3ccc(Oc4ccccc4)cc3)c3c(=O)[nH]cc(Br)c3n2)CC1`, the “IRF Lucia reporter activity” value in the experiment on RAW-Dual [2] (setting [5]) was found to be 1.03.
The same measure, in the same setting: as for `COC1/C=C/OC2(C)Oc3c(C)c(O)c4c(O)c(c5c(nc6cc(C)ccn65)c4c3C2=O)NC(=O)/C(C)=C\C=C\C(C)C(O)C(C)C(O)C(C)C(OC(C)=O)C1C` (stereo not given), the figure is 0.796.
Take `COC1/C=C/OC2(C)Oc3c(C)c(O)c4c(O)c(c5c(nc6cc(C)ccn65)c4c3C2=O)NC(=O)/C(C)=C\C=C\C(C)C(O)C(C)C(O)C(C)C(OC(C)=O)C1C` (stereo not given) (library stock concentration (final ~1000-fold dilution): 10 mM): the “IRF Lucia reporter activity” value in the experiment with RAW-Dual [1] (setting [4]) is 1.14; in the experiment with RAW-Dual [1] (agonist: LPS (TLR4) 0.1 ug/mL), 1.07.
For `Cc1[nH]c(=O)c(C#N)cc1-c1ccc2nccn2c1`, the “IRF Lucia reporter activity” value with RAW-Dual [2] (setting [5]) was 1.
In the case of `Cc1[nH]c(=O)c(C#N)cc1-c1ccc2nccn2c1` (library stock concentration (final ~1000-fold dilution): 10 mM), the entries for the “IRF Lucia reporter activity” value in the experiment on RAW-Dual [1] (setting [4]) and with RAW-Dual [1] (agonist: LPS (TLR4) 0.1 ug/mL) were 0.909 and 0.892, respectively.
`NC(=O)c1cccc(-c2cccc(OC(=O)NC3CCCCC3)c2)c1`: the “IRF Lucia reporter activity” value in the experiment on RAW-Dual [2] (setting [5]) stood at 0.294.
Consider `NC(=O)c1cccc(-c2cccc(OC(=O)NC3CCCCC3)c2)c1` (library stock concentration (final ~1000-fold dilution): 10 mM), for which the “IRF Lucia reporter activity” value in the experiment with RAW-Dual [1] (setting [4]) was 0.492; with RAW-Dual [1] (agonist: LPS (TLR4) 0.1 ug/mL), 0.306.
In the case of `NC1CONC1=O` (stereo not given) (library stock concentration (final ~1000-fold dilution): 10 mM), the “IRF Lucia reporter activity” value in the experiment with RAW-Dual [1] (setting [4]) came out at 1.05; with RAW-Dual [1] (agonist: LPS (TLR4) 0.1 ug/mL), 1.33.
For the molecule `NC1CONC1=O` (stereo not given), in the experiment with RAW-Dual [2] (setting [5]), the “IRF Lucia reporter activity” value came to 1.09.
Regarding `COc1c(-c2ccc3cc(NS(C)(=O)=O)ccc3c2)cc(-n2ccc(=O)[nH]c2=O)cc1C(C)(C)C` (library stock concentration (final ~1000-fold dilution): 10 mM), the “IRF Lucia reporter activity” value worked out at 1.05 in the experiment with RAW-Dual [1] (setting [4]) and 2.59 with RAW-Dual [1] (agonist: LPS (TLR4) 0.1 ug/mL).
Take `COc1c(-c2ccc3cc(NS(C)(=O)=O)ccc3c2)cc(-n2ccc(=O)[nH]c2=O)cc1C(C)(C)C`: the “IRF Lucia reporter activity” value in the experiment with RAW-Dual [2] (setting [5]) was 1.75.
Consider `CCN(CC)CCNC(=O)c1c(C)[nH]c(/C=C2/C(=O)Nc3ccc(-c4csc(-c5ccccc5)n4)cc32)c1C` (library stock concentration (final ~1000-fold dilution): 10 mM), for which the “IRF Lucia reporter activity” value in the experiment with RAW-Dual [3] (setting [4]) was 0.0953; in the experiment on RAW-Dual [3] (agonist: LPS (TLR4) 0.1 ug/mL), 0.717.
Turning to `Cc1cc(Nc2nc(NC(C)c3ccc(F)cc3)c(C#N)cc2F)n[nH]1` (stereo not given) (library stock concentration (final ~1000-fold dilution): 10 mM), the “IRF Lucia reporter activity” value in the experiment with RAW-Dual [1] (setting [4]) stood at 1.02; with RAW-Dual [1] (agonist: LPS (TLR4) 0.1 ug/mL) it was 0.791.
Turning to `Cc1cc(Nc2nc(NC(C)c3ccc(F)cc3)c(C#N)cc2F)n[nH]1` (stereo not given), in the experiment with RAW-Dual [2] (setting [5]), the “IRF Lucia reporter activity” value came to 1.1.
With `COc1cc2nc(N3CCCC3)nc(NCCCCCN3CCCC3)c2cc1OC`, the “IRF Lucia reporter activity” value in the experiment with RAW-Dual [2] (cytotoxicity flag (confluency mask): cytotoxic (confluency <70% of control)) came out at 0.8.
Consider `COc1cc2nc(N3CCCC3)nc(NCCCCCN3CCCC3)c2cc1OC` (library stock concentration (final ~1000-fold dilution): 10 mM), for which the “IRF Lucia reporter activity” value in the experiment with RAW-Dual [3] (setting [4]) amounted to 0.313; in the experiment on RAW-Dual [3] (agonist: LPS (TLR4) 0.1 ug/mL), 2.54.
As to `COc1cc2nc(N(C)CCCNC(=O)C3CCCO3)nc(N)c2cc1OC.Cl` (stereo not given) (library stock concentration (final ~1000-fold dilution): 10 mM), the “IRF Lucia reporter activity” value with RAW-Dual [1] (setting [4]) came out at 0.64; in the experiment with RAW-Dual [1] (agonist: LPS (TLR4) 0.1 ug/mL) it was 0.963.
Regarding `COc1cc2nc(N(C)CCCNC(=O)C3CCCO3)nc(N)c2cc1OC.Cl` (stereo not given), the “IRF Lucia reporter activity” value with RAW-Dual [2] (setting [5]) turned out to be 0.985.
